doi:10.1101/550970 (bioRxiv, 2019)

Molecular target: histone H4 (Xenopus laevis), in the nucleosome (Xenopus laevis, UniProt P62799)
Assay: cryo-EM structure

B1: human SNF2h (full-length form of the human ISWI remodeler) (enzyme)
chain: MSSAAEPPPPPPPESAPSKPAASIASGGSNSSNKGGPEGVAAQAVASAASAGPADAEMEEIFDDASPGKQKEIQEPDPTYEEKMQTDRANRFEYLLKQTELFAHFIQPAAQKTPTSPLKMKPGRPRIKKDEKQNLLSVGDYRHRRTEQEEDEELLTESSKATNVCTRFEDSPSYVKWGKLRDYQVRGLNWLISLYENGINGILADEMGLGKTLQTISLLGYMKHYRNIPGPHMVLVPKSTLHNWMSEFKRWVPTLRSVCLIGDKEQRAAFVRDVLLPGEWDVCVTSYEMLIKEKSVFKKFNWRYLVIDEAHRIKNEKSKLSEIVREFKTTNRLLLTGTPLQNNLHELWSLLNFLLPDVFNSADDFDSWFDTNNCLGDQKLVERLHMVLRPFLLRRIKADVEKSLPPKKEVKIYVGLSKMQREWYTRILMKDIDILNSAGKMDKMRLLNILMQLRKCCNHPYLFDGAEPGPPYTTDMHLVTNSGKMVVLDKLLPKLKEQGSRVLIFSQMTRVLDILEDYCMWRNYEYCRLDGQTPHDERQDSINAYNEPNSTKFVFMLSTRAGGLGINLATADVVILYDSDWNPQVDLQAMDRAHRIGQTKTVRVFRFITDNTVEERIVERAEMKLRLDSIVIQQGRLVDQNLNKIGKDEMLQMIRHGATHVFASKESEITDEDIDGILERGAKKTAEMNEKLSKMGESSLRNFTMDTESSVYNFEGEDYREKQKIAFTEWIEPPKRERKANYAVDAYFREALRVSEPKAPKAPRPPKQPNVQDFQFFPPRLFELLEKEILFYRKTIGYKVPRNPELPNAAQAQKEEQLKIDEAESLNDEELEEKEKLLTQGFTNWNKRDFNQFIKANEKWGRDDIENIAREVEGKTPEEVIEYSAVFWERCNELQDIEKIMAQIERGEARIQRRISIKKALDTKIGRYKAPFHQLRISYGTNKGKNYTEEEDRFLICMLHKLGFDKENVYDELRQCIRNSPQFRFDWFLKSRTAMELQRRCNTLITLIERENMELEEKEKAEKKKRGPKPSTQKRKMDGAPDGRGRKKKLKL
B1: binds.
